# Source: PubChem BioAssay AID651820 (National Center for Advancing Translational Sciences (NCATS), 2012)
# The whole screen tested about 340,000 compounds, of which about 12,000 (3.5%) were called active. Inconclusive results, whose numbers are uncertain, are shown with a selection of clear calls. Calls come from the whole dose curve; as a rule, active = well fitted inhibition curve with a large enough effect; inconclusive = small, poorly fitted or top-dose-only effect, or another doubt; inactive = no such curve, though single readings can be large or run the other way. No potency is given beside an inconclusive call; the fits are too rough.
# Experiment: qHTS Assay for Inhibitors of Hepatitis C Virus (HCV)
# Settings: Huh7.5.1 HCVcc-Cre (HCVcc is cell-culture hepatitis C virus) infection, luciferase reporter, 44 h; activity change, negative = inhibition: at 41.8 µM (top of the series)
# How it was run: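 Luciferase read-out (15 sec integration) after a 15 min room-temperature substrate step quantifies HCVcc-Cre infection. Cells, 1,000 per well, had compound added 4 h post-plating, then virus at ~0.5 moi, and were cultured 44 h.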
# % is set by controls: 0 for no effect and ±100 for the full control effect; potency is the fitted concentration of half-maximal effect; tags give direction and shape of the fitted curve.
SMILES,Potency,"activity change, negative = inhibition"
Cc1cc2nc(C3CCCN(C(=S)Nc4ccccc4)C3)[nH]c2cc1C (stereo not drawn),"inconclusive [inhibitor, full curve]",–
COc1ccc(N/C(N)=N/c2nc(C)cc(C)n2)c(OC)c1,"inconclusive [inhibitor, single point]",–
Cc1ccc2cc3cc(C(=O)N4CCN(Cc5ccccc5)CC4)sc3nc2c1,"inconclusive [inhibitor, partial curve, poor fit]",–
Cc1ccccc1NC(NC(=O)OCCn1c([N+](=O)[O-])cnc1C)C(Cl)(Cl)Cl (stereo not drawn),–,inactive: 19.1%
CCOc1ccc(OCC)c2sc(C)nc12,active: 10 µM,–
CCOc1ccc(-c2nc(-c3cccnc3)no2)cc1,–,inactive: -7.52%
COc1ccc(/C=N\NC(=O)c2ccccc2F)cc1COc1ccc(F)cc1F,"inconclusive [inhibitor, partial curve]",–
CCCNC(=O)c1onc(CSc2ccc(F)c(F)c2)c1C(=O)NCCC,"inconclusive [inhibitor, full curve, poor fit]",–
Cc1ccc(Cn2ccsc2=NC(=O)COC(=O)c2ccc(O)cc2O)cc1,active: 11.2 µM,–
CCOc1cc(C)nc(NCCc2ccc(OC)c(OC)c2)n1,"inconclusive [inhibitor, partial curve]",–
CCC/S(CC1CC1(Cl)Cl)=N\S(=O)(=O)c1ccc(C)cc1 (stereo not drawn),–,inactive: 11.1%
O=c1[nH]c2ccccc2n2cnnc12,–,inactive: -5.71%
COc1cc(-c2nnc(COC(=O)c3cccn3C)o2)cc(OC)c1OC,"inconclusive [inhibitor, partial curve]",–
CCOc1ccc(CCNC(=O)CS(=O)Cc2nc(-c3ccc(C)cc3)oc2C)cc1 (stereo not drawn),"inconclusive [inhibitor, partial curve]",–
CCCc1nc(C)c2c(=O)[nH]c(-c3cc(S(=O)(=O)N4CCN(CC)CC4)ccc3OCC)nn12,–,inactive: 11.4%
CCCC(C(=O)NC(C)(C)C)N(Cc1ccccc1Cl)C(=O)c1snc(C(N)=O)c1N (stereo not drawn),"inconclusive [inhibitor, single point]",–
COc1ccccc1Nc1nc(C2(C)CCC(=O)O2)cs1 (stereo not drawn),–,inactive: -9.5%
CCOC(=O)c1sc(NC(=O)CSC(=S)N2CCN(C)CC2)nc1C,active: 12.6 µM,–
O=C(CSc1ccccc1)Nc1ccc2sccc2c1,–,inactive: -7.69%
CCN(C(=O)COC(=O)/C=C/c1ccco1)c1c(N)n(Cc2ccccc2)c(=O)[nH]c1=O,"inconclusive [inhibitor, single point]",–
CC1CCc2sc(C(=O)OCC(=O)NC(C)C)cc2C1 (stereo not drawn),–,inactive: 20.6%
Cc1cc(C(=O)COC(=O)c2csc3c2CCCC3)c(C)n1C,"inconclusive [inhibitor, full curve]",–
N#Cc1ccccc1Cn1cc(C#N)c2ccccc21,–,inactive: -1.16%
O=C(Nc1cnn(Cc2c(Cl)cccc2Cl)c1)C(c1ccccc1)c1ccccc1,"inconclusive [inhibitor, partial curve]",–
O=C(c1ccco1)[C@@H]1[C@@H]2C(=O)N(c3ccc(Br)cc3)C(=O)[C@@H]2C2c3ccccc3C=CN21 (stereo partly drawn),–,inactive: 0.448%

SMILES,Potency,"activity change, negative = inhibition"
COc1ccc(/C=N/NC(=O)c2cc(C(C)(C)C)[nH]n2)cc1COc1ccc(F)cc1F,"inconclusive [inhibitor, single point]",–
COc1ccc(C)cc1NC(=O)CSc1nc2ccccc2nc1N1CCCCC1,–,inactive: -21.3%
Cc1ccc(NS(=O)(=O)c2cc(OCC(N)=O)c(C)cc2Cl)cc1C,"inconclusive [inhibitor, single point]",–
Cc1ccc(CN(Cc2ccccn2)C(=O)Nc2c(F)cccc2F)cc1,–,inactive: -5.64%
CCC(C)NCC(O)COCc1ccc(Cl)cc1 (stereo not drawn),"inconclusive [inhibitor, partial curve, poor fit]",–
CC(C)(C)OC(=O)NCCc1nnc(S(=O)(=O)Cc2ccc(Cl)cc2Cl)o1,"inconclusive [inhibitor, single point]",–
CCN(CC)CCCNC(=O)c1ccc2c(SCC(=O)O)c3c(nc2c1)CCC3,–,inactive: 6.04% [at 0.335 µM]
N=C1C(c2ccccc2)=C(O)CN1CCCO,–,inactive: 27.1%
COc1ccc(CN2CCC(n3nccc3NC(=O)CCc3ccccc3)CC2)c(C)c1C,–,inactive: 7.58%
COC(=O)c1ccc(COc2cccc3c2OC(C)(C)C3)cc1,–,inactive: -0.274%
COc1ccc(C(=O)N2CCN(c3ccccc3)CC2)cc1S(=O)(=O)N1CCCC1,"inconclusive [inhibitor, partial curve]",–
Cc1ccn(CC(=O)NC2CCCN(Cc3ccc(CC(C)C)cc3)C2)n1 (stereo not drawn),"inconclusive [inhibitor, single point]",–
COC(CNC(=O)c1ccc(N2CCc3ccccc32)c([N+](=O)[O-])c1)OC,"inconclusive [inhibitor, single point]",–
CC1=C(C(=O)OCc2ccccc2)C(c2ccccc2OC(F)F)NC(=O)N1 (stereo not drawn),"inconclusive [inhibitor, partial curve, poor fit]",–
CCOC(=O)C1=CN(CC)S(=O)(=O)NC1CC (stereo not drawn),–,inactive: 0.29%
Cn1c(=O)c2c(SCC(=O)NCc3ccco3)nc(CC(C)(C)C)nc2n(C)c1=O,"inconclusive [inhibitor, full curve]",–
Cc1ccc(C(=O)NCC(C)NC(=O)c2ccc(C)c([N+](=O)[O-])c2)cc1[N+](=O)[O-] (stereo not drawn),–,inactive: -12.9%
CCOC(=O)c1c(NC(=O)C2=C(C)NC(=S)NC2c2ccc(F)cc2F)sc(C)c1C (stereo not drawn),"inconclusive [inhibitor, partial curve]",–
N#Cc1nc(N2CCCC2)nc(N2CCCC2)n1,active: 7.08 µM,–
O=c1c(-c2n[nH]c(=S)n2-c2ccccc2)cccn1Cc1cccc(Cl)c1,"inconclusive [inhibitor, single point]",–
CCN(CC)Cc1nc2c(c(=O)[nH]1)C1(CCCC1)Cc1ccccc1-2,"inconclusive [inhibitor, partial curve]",–
CN(NC(=O)Nc1ccc(Cl)cc1)c1c(Cl)c(Cl)nn1C,"inconclusive [inhibitor, partial curve]",–
Cn1c(-c2ccc3ccccc3n2)[n+](C)c2ccccc21,"inconclusive [inhibitor, single point]",–
COc1ccc2nc(C)cc(N3CCN(S(=O)(=O)c4ccccc4F)CC3)c2c1,active: 7.08 µM,–
N#Cc1c(NC(=O)c2ccccc2)sc2c1CCCCC2,"inconclusive [inhibitor, single point]",–

SMILES,Potency,"activity change, negative = inhibition"
CCN(CC)c1ccc(C(=O)OCC(=O)Nc2ccccc2-c2ccccc2)cc1,active: 8.91 µM,–
COC(=O)\C(C(C)=O)=C(/C=C/C=C/C=C/N(C)C)N(C)C,–,inactive: -20.5%
COc1ccccc1OCC(=O)N1CCCC(Nc2ccc(F)c(F)c2)C1 (stereo not drawn),–,inactive: 16.9%
CN(C)S(=O)(=O)NCCNc1ccc(C(F)(F)F)cc1[N+](=O)[O-],"inconclusive [inhibitor, single point]",–
CCOc1nc(-c2ccccc2)ccc1-c1noc(COC)n1,active: 10 µM,–
CN(C)CCCN(C(=O)CCS(=O)(=O)c1ccccc1)c1nc2cc3c(cc2s1)OCO3,"inconclusive [inhibitor, single point]",–
CCC1Nc2ncnc(N3CCN(c4ccccc4)CC3)c2N(Cc2ccc(Br)cc2)C1=O (stereo not drawn),–,inactive: 6.85%
CC1(C)CC(C#N)(N2CCOCC2)CCO1 (stereo not drawn),–,inactive: -3.58%
CCc1nc(SCC(=O)Nc2ccccc2OC)c2c(C)c(C)sc2n1,"inconclusive [inhibitor, full curve, poor fit]",–
CCN(c1ccccc1)S(=O)(=O)c1ccc(OC)c(NC(=O)COc2ccc(C(C)=O)cc2)c1,"inconclusive [inhibitor, partial curve]",–
CCOC(=O)c1cnc(SC2CCc3ccccc3C2=O)nc1N (stereo not drawn),–,inactive: -14.6%
CC(Oc1cccc(F)c1)c1ccnc2nc(/N=C/N(C)C)nn12 (stereo not drawn),–,inactive: -19%
CC(NCc1ccc(OCc2ccc(Cl)cc2)cc1)C(O)c1ccccc1 (stereo not drawn),active: 10 µM,–
O=C(Nc1ccc(OC(F)F)c(Cl)c1)c1cccc(OC(F)F)c1,"inconclusive [inhibitor, partial curve, poor fit]",–
CCOc1cc(/C=N/NC(=O)CN(CCc2ccccc2)S(=O)(=O)c2ccc(NC(C)=O)cc2)ccc1O,"inconclusive [inhibitor, partial curve]",–
CN1C[C@H](CNC(=O)OCc2ccccc2)C[C@@H]2c3cccc4c3c(cn4C)C[C@H]21,"inconclusive [inhibitor, single point]",–
CCc1ccc2oc(-c3cc(N)ccc3O)nc2c1,"inconclusive [inhibitor, partial curve]",–
CCn1nnnc1SCC(=O)c1cc(Cl)ccc1OC,–,inactive: -20.5%
CC(=O)c1ccc(-c2ccc([C@H]3[C@@H]4C=CCC[C@@]4(C)C(=O)N3Cc3ccccc3)c(F)c2)cc1,"inconclusive [inhibitor, full curve, poor fit]",–
Cc1nc2ccccc2n1CC(=O)NC1CCCCCC1,"inconclusive [inhibitor, single point]",–
CCc1cccc(CC)c1-n1c(SCC(=O)N2CCc3ccccc3C2)nnc1-c1cccnc1,"inconclusive [inhibitor, single point]",–
COCCN(CC(=O)NC1CCCCC1)C(=O)CSc1nc2ccccc2o1,"inconclusive [inhibitor, single point]",–
CCOC(=O)c1c(C)[nH]c2cc(Br)c(O)cc12,"inconclusive [inhibitor, partial curve]",–
